Measured values reported in PubChem BioAssay AID493208 (National Center for Advancing Translational Sciences (NCATS), 2011).
The whole screen tested about 44,000 compounds, of which about 340 (0.77%) were called active. Roughly 5% stayed inconclusive and do not appear here. Calls come from the whole dose curve; as a rule, active = well fitted inhibition curve with a large enough effect; inconclusive = small, poorly fitted or top-dose-only effect; inactive = flat fitted curve, though single readings scatter. Some of the results follow.

test: Acumen qHTS Assay for Inhibitors of the mTORC1 Signaling Pathway in MEF (Tsc2-/-, p53-/-) Cells: Sytravon; conditions: phospho-rpS6 immunofluorescence/PI, 24 h; series mostly up to 38.3 µM; activity change, negative = inhibition: at the top concentration;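 note: plate controls were DMSO for no effect and rapamycin for full effect; nearly all actives have a fitted effect of over 50% in size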
In short: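 Plate MEFs (Tsc2-/-, p53-/-, empty vector) in DMEM/10% FBS; after 24 h add compound, incubate 24 h at 37 degree Celsius; fix in PFA/TX-100, block, stain phospho-rpS6 and 10 uM PI; scan at 488 nm; report % positive cells.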

SMILES	activity change, negative = inhibition
CSc1nn(CC(=O)Nc2ccc(C)cc2C)c(N)c1S(=O)(=O)c1ccc(Cl)cc1	inactive: -13.6%
COc1cc2c(C(=O)N3CCN(c4ccc(F)cc4)CC3)cn(CC(C)C)c(=O)c2cc1OC	inactive: -19.8%
CCOc1ccccc1NC(=O)C1CCCN(S(=O)(=O)c2cccs2)C1 (stereo not given)	inactive: -10%
COc1ccc(NC(=O)c2sc3nc4n(c(=O)c3c2C)CCC4)c(OC)c1	inactive: 2.02%
CCOC(=O)N1CCN(c2ncc3c(n2)CC(c2ccc(OC)c(OC)c2)CC3=O)CC1 (stereo not given)	inactive: -5.15%
Cc1noc(/C=C/c2ccccc2F)c1S(=O)(=O)N1CCC(C(=O)NCc2ccco2)CC1	inactive: -8.3%
COc1ccc(CCNC(=O)CCc2c(C)nc3cc(-c4ccc(Cl)cc4)nn3c2C)c(OC)c1	inactive: 5.09%
CCOC(=O)c1ccccc1NC(=O)N1CCCn2nc(C)cc21	inactive: 2.09%
Cc1cc(C)cc(N2C(=O)CSC23C(=O)N(CC(=O)NC2CCCCC2)c2ccccc23)c1 (stereo not given)	inactive: -0.928%
COc1ccc(C(=O)Nc2cccc(OCc3cc(=O)n4c5c(sc4n3)CCCC5)c2)cc1OC	inactive: -0.702%
CCc1ccc(NC(=O)Cn2c(=O)n(Cc3ccc(C)cc3)c(=O)c3cccnc32)cc1	inactive: 2.05%
CC(=O)N1CCCc2cc(S(=O)(=O)N3CCC(C(=O)N(C)C4CCCCC4)CC3)ccc21	inactive: -4%
Cc1ccccc1C(=O)Nc1nnc(S(=O)(=O)N2CCc3ccccc32)s1	inactive: -5.43%
COc1ccc(OC)c(CCNC(=O)c2cnn(-c3ccccc3)c2-n2cccc2)c1	inactive: -9.92%
O=C(CCS(=O)(=O)c1cc(Br)cc2c1N(C(=O)C1CC1)CC2)N1CCN(c2ccccc2)CC1	inactive: 6.65%
CNC(=O)C1CCN(C(=O)N2CC(C)Oc3ccc(Cl)cc32)CC1 (stereo not given)	inactive: 5.08%
CCOc1ccc(C2CC(=O)c3c([nH]c(C(=O)OCCOc4ccccc4)c3C)C2)cc1 (stereo not given)	inactive: -10.4%
CCOC(=O)C1CCCN(C(=O)c2ccccc2NC(=O)c2nsc3ccccc23)C1 (stereo not given)	inactive: -9.85%
Cc1nnc2c3ccccc3nc(N3CCN(c4ccccc4)CC3)n12	inactive: 1.63%
O=C(c1ccc2c(c1)N(Cc1cccc(Cl)c1)C(=O)c1ccccc1S2(=O)=O)N1CCCC1	inactive: -3.85%

SMILES	activity change, negative = inhibition
Cc1ccccc1Cn1nnc2c(=O)[nH]c(C3CCCN(C(=O)c4ccc(C(C)(C)C)cc4)C3)nc21 (stereo not given)	inactive: -3.4%
N#Cc1c(-c2ccccc2)cc(-c2ccccc2)nc1SCC(O)CS(=O)(=O)Cc1ccccc1 (stereo not given)	inactive: 10.2%
CCOCCCNC(=O)C1CCCN(c2ncnc3onc(C)c23)C1 (stereo not given)	inactive: -4.91%
O=C(CCc1ccccc1)N(Cc1cccnc1)c1nc2ccc(F)cc2s1	inactive: -10.7%
CCN(CC)C(=O)CSc1nc2c(c(=O)n(C)c(=O)n2C)n1Cc1ccccc1	inactive: 2.41%
CCOc1ccc(NC(=O)c2cnn(-c3ccccc3)c2-n2cccc2)cc1	inactive: -7.14%
COc1ccc2c(c1)c1c(c(=O)n(-c3ccc(C)cc3)c(=O)n1CC(=O)c1ccc(Cl)cc1)n2C	inactive: 0.165%
COc1ccc(NC(=O)Cn2cc(S(=O)(=O)N3CCC(C)CC3)c3ccccc3c2=O)cc1Cl	inactive: -23.5%
Cc1ccc(C)c(CNS(=O)(=O)c2ccc3c(c2)C(C)(C)C(=O)N3C)c1	inactive: 0%
Cc1ccccc1C(=O)Nc1cccc(OCc2cc(=O)n3c4c(sc3n2)CCCC4)c1	inactive: -7.13%
CCOc1ccc(NC(=O)c2ccc3[nH]c(C)cc(=O)c3c2)cc1	inactive: 2.53%
COc1cccc(CNS(=O)(=O)c2ccc3[nH]c4c(c3c2)CCCCC4)c1	inactive: -8.42%
Cc1ccc(C)c(N2CCN(C(=O)c3ccc(-c4nc(COc5ccccc5)c(C)o4)cc3)CC2)c1	inactive: -11.3%
COc1ccc2c(CNCCc3ccccc3C)c(C(=O)O)n(Cc3ccccc3C)c2c1	inactive: 4.37%
CCOC(=O)c1c(S(=O)(=O)N2CCCC(C(=O)NCc3ccc(F)cc3)C2)c(C)n(CC)c1C (stereo not given)	inactive: 0.705%
COc1ccc(CN(Cc2ccco2)C(=O)COc2ccc(Cl)cc2C)cc1	inactive: 0.766%
Cc1ccc2c(c1)cc1c(=O)n(CC(=O)N(C)c3ccccc3)nc(C)n12	inactive: 0.762%
CC(=O)N1CCc2c(sc3c2c(=O)n(-c2cccc(Cl)c2C)c(=O)n3Cc2ccccc2C)C1	inactive: 0.0909%
COc1cccc(-c2nnc(SCC(=O)N3CCCCC3)o2)c1	inactive: 2.54%
COc1ccc(CNC(=O)C2CCCN(S(=O)(=O)N(C)c3ccc(F)cc3)C2)cc1OC (stereo not given)	inactive: -13.4%

SMILES	activity change, negative = inhibition
O=C(OCc1cc(=O)n2nc(-c3cccs3)sc2n1)c1cccc(Cl)c1	inactive: -4.8%
CCOC(=O)c1cccc(NC(=O)c2ccc3c(c2)nnn3CC)c1	inactive: 0.499%
Cc1ccc(C)c(Cn2c(=O)n(CC3CCC(C(=O)N4CCOCC4)CC3)c(=O)c3sccc32)c1 (stereo not given)	inactive: 3.87%
Cc1ccc(NC(=O)Cn2c(=O)c(C(F)(F)F)nc3ccccc32)cc1C	inactive: 2.65%
CCOC(=O)c1ccccc1NC(=O)Cn1nnc2sc3c(c2c1=O)CCCC3	inactive: 0.75%
Cc1ccc(C(C(=O)NC2CCCCC2)N(C)Cc2ccccc2)cc1 (stereo not given)	inactive: 1.32%
Cc1oc2c(c1C(=O)Nc1ccc(F)c(F)c1)C1=NCCN1C=N2	inactive: 0.216%
CCc1cccc(CC)c1NC(=O)CCS(=O)(=O)c1ccc(Br)s1	inactive: -8.74%
Cn1cc(-c2cc3n(n2)CCC(=O)N3CCCC(=O)NCc2ccc(F)cc2)c2ccccc21	inactive: -18.6%
CCOC(=O)c1ccccc1Nc1nc2ccc(C)cc2n2nnnc12	inactive: -0.929%
Cc1cccc(C)c1NC(=O)c1nc(S(C)(=O)=O)ncc1N(Cc1ccc(C(C)(C)C)cc1)Cc1ccco1	inactive: 0%
CCOc1ccc(NC(=O)c2oc3ccccc3c2NC(=O)C2CCCCC2)cc1	inactive: -0.296%
CCN1CCN(Cc2c(O)ccc3oc(C)c(C(=O)Nc4ccc(OC)cc4)c23)CC1	inactive: 5.71%
Cc1ccc(NC(=O)CSc2nc3nc(C)c(Cc4ccccc4)c(C)n3n2)cc1	inactive: 6.92%
CC(C)CNC(=O)N1CCN(S(=O)(=O)c2ccc3c(ccn3C)c2)CC1	inactive: -22.4%
Cc1ccc2oc3c(c(=O)c2c1)C(c1ccccc1F)N(c1ccccn1)C3=O (stereo not given)	inactive: 8.75%
COc1ccc(Cn2ccnc2SCC(=O)Nc2ccc3c(c2)OCO3)cc1	inactive: -8.78%
COc1ccc(-c2cc(C(F)(F)F)n3nc(C(=O)Nc4cc(C(F)(F)F)ccc4Cl)cc3n2)cc1OC	inactive: 7.35%
CN(C)c1ccc(CN(Cc2ccco2)C(=O)COc2ccc(F)cc2)cc1	inactive: -25.4%
Cc1ccc(NC(=O)N2CC3CCCN3c3ccccc32)cc1C (stereo not given)	inactive: -7.31%
